Publication PMC5663884, “Compositional and expression analyses of the glideosome during the Plasmodium life cycle reveal an additional myosin light chain required for maximum motility” (The Journal of Biological Chemistry, 2017)
No constants are given. Whether binding was seen depends on the method and setting. For some assays here: In cells and extracts the contact can be indirect. Some results given as binding are weak or reduced against the parent protein; the word gives no strength. For some assays here: Where a sequence is shown, tags or fusion partners need not be part of it.

Protein sequences, listed by entry. Tags and fused reporters are not part of them.
UniProt Q8I5I8: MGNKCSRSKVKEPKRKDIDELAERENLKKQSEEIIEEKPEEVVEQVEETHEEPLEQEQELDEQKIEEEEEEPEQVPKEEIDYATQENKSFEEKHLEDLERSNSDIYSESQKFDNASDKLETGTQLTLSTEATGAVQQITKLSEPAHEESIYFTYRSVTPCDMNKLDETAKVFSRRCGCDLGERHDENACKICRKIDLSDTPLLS
UniProt Q8I4W8: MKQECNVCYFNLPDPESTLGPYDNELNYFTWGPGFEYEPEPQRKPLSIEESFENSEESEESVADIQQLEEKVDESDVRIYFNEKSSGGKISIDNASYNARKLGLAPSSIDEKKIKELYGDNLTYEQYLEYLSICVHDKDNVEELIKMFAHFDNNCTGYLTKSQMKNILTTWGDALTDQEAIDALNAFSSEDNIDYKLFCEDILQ
UniProt Q8IJM4: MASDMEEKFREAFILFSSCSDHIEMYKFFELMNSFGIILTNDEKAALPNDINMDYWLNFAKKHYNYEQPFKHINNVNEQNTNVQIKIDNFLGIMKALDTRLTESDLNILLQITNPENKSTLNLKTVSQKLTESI

Legend:
[1] = target: P. falciparum MyoA-GFP (myosin A tagged at its C terminus with GFP, expressed from the endogenous locus) (P. falciparum) (UniProt Q8IDR3); assay: co-IP
[2] = target: Recombinant full-length PfMyoA with N-terminal StrepTagII and GFP (Sf21) (P. falciparum) (UniProt Q8IDR3); assay: co-purification of co-expressed proteins (Strep-Tactin affinity, then SEC)
[3] = target: P. falciparum GAP45 tagged internally with GFP (P. falciparum) (UniProt Q8I5I8); assay: co-IP
[4] = target: Myosin light chain 1, myosin A tail domain–interacting protein (MTIP), endogenous (P. falciparum (endogenous in schizonts and merozoites)) (UniProt Q8I4W8); assay: co-IP; anti-MTIP antibodies on lysates of 3D7 schizonts or merozoites; Western blotting with PfELC-specific antibodies; preimmune antibody as control
[5] = target: T1, P. falciparum MyoB-GFP (P. falciparum) (UniProt Q8I465); assay: co-IP
T1 sequence: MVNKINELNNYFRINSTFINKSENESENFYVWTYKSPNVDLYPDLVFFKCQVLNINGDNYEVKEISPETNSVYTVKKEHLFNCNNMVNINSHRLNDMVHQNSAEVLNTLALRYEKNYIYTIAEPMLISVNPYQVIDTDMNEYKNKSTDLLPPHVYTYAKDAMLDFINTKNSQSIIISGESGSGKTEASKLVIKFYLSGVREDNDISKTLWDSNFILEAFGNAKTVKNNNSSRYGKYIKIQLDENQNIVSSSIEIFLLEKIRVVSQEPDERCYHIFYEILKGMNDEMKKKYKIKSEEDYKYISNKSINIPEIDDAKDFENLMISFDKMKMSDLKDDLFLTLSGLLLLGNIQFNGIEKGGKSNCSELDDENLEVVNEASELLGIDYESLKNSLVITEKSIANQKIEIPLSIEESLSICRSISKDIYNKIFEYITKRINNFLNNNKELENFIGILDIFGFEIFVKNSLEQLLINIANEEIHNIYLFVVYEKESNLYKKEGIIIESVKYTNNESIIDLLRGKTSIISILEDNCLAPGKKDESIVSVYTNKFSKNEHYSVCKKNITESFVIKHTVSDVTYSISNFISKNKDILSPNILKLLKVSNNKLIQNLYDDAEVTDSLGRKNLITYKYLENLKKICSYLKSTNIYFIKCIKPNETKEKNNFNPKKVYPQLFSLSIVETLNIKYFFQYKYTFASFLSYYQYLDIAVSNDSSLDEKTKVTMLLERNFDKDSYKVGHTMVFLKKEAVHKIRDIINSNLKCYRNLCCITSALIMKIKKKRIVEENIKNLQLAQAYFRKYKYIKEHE

[6] = target: Biotinylated PfMyoA neck peptide 770–787 (P. falciparum) (UniProt Q8IDR3); assay: BLI; both purified

Substance | binding [1] | binding [3] | also measured
Glideosome-associated protein 45 (GAP45), endogenous (from UniProt Q8I5I8 1-204) | binds |  | 
Recombinant PfELC with N-terminal hexahistidine tag (Sf21) (from UniProt Q8IJM4 1-134) |  |  | binding [2]: binds
P. falciparum myosin A (MyoA), untagged, endogenous (from UniProt Q8IDR3 1-818) |  | binds | 
P. falciparum essential light chain (PfELC), endogenous (from UniProt Q8IJM4 1-134) | binds |  | binding [4]: binds; binding [5]: no binding
Recombinant His-tagged PfELC (E. coli) (from UniProt Q8IJM4 1-134) |  |  | binding [6]: no binding (tested: 0.04–5 μM PfELC)
Myosin light chain 1, myosin A tail domain–interacting protein (MTIP), endogenous (from UniProt Q8I4W8 1-204) |  | binds | 
